Measurements: PubChem BioAssay AID1458 (National Center for Advancing Translational Sciences (NCATS), 2008)
In all, about 210,000 compounds went through this assay and about 5,900 (2.8%) were called active. This list was built around the results that the source calls inconclusive (neither active nor inactive); the mix of calls is not that of the screen. Calls follow the shape of the dose curve; as a rule, active = well fitted activation curve with a large enough effect; inconclusive = small, poorly fitted or top-dose-only effect; inactive = no such curve, though single readings can be large or run the other way. A potency beside an inconclusive call is a rough fit, not a confirmed value.

assay: qHTS Assay for Enhancers of SMN2 Splice Variant Expression; conditions: HEK293 SMN2-luciferase splicing reporter, luminescence, 30-36 h; activity change, positive = activation: at 46.1 µM (top of the series); also: nearly all actives have a fitted effect of over 55% in size; as to activity change, positive = activation: % of control where 0% means no effect
Summary of the method: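 HEK293 cells carry an SMN2 minigene-luciferase reporter in which exon 7 inclusion puts luciferase in frame. Cells were seeded at 2000 cells/well, attached for 10-12 hours, then exposed to compounds for 30-36 hours at 37C before ONE-Glo luminescence.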
Potency is read from the fitted curve at half-maximal effect; tags tell the direction and shape of the fitted curve.

SMILES | activity change, positive = activation | Potency
N=C(N)SCc1cccc(-c2nc3ccccc3c(=O)o2)c1 | inactive: -0.748% [at 9.22 µM] | –
Cc1ccc(-c2ccc(/C=N/N3C(=O)C4C5C=CC(C6CC56)C4C3=O)o2)c([N+](=O)[O-])c1 (centres undefined) | inactive: -40% | –
O=C(Nc1cccc(Cl)c1)c1ccc2c(=O)n3c(nc2c1)CCCCC3 | – | inconclusive: 35.5 µM [activator, single point]
CCOC(=O)CC(Nc1nc(N2CCOCC2)nc(N2CCOCC2)n1)c1ccccc1Cl (centres undefined) | inactive: -21.7% | –
COc1ccccc1C(=O)OCc1ccc2sc(C)nc2c1 | inactive: 2.79% | –
Cc1ccc2c(Cl)c(C(=O)NCCc3ccccc3)sc2c1 | – | active: 15.8 µM
COc1ccccc1NC(=O)CCCOc1cc(=O)n(C)c2ccccc12 | – | inconclusive: 20 µM [activator, single point]
COc1ccc2c(C)cc(SCn3nnc4ccccc4c3=O)nc2c1 | – | inconclusive: 1.78 µM [activator, full curve, poor fit]
Cc1ccnc(Sc2ncccc2[N+](=O)[O-])n1 | – | inconclusive: 5.62 µM [activator, full curve, poor fit]
CC1CN(c2ccc(Cl)cc2)c2nc3c(c(=O)n(CC(=O)O)c(=O)n3C)n2C1 (centres undefined) | inactive: -3.07% | –
COc1cccc(-c2cc(C(=O)Nc3c(C)nn(Cc4ccccc4Cl)c3C)no2)c1 | inactive: -8.86% | –
FC(F)(F)c1ccc(NC(=S)NC2CCCCC2)cc1 | – | active: 15.8 µM
Cc1nn(C)cc1/C=C1\SC(=S)NC1=O | inactive: 1.88% | –
Clc1ccc(-c2nc3cnccn3c2Nc2ccc3c(c2)OCO3)cc1 | inactive: 0.721% | –
O=c1ccc2cc(S(=O)(=O)N3CCOCC3)ccc2o1 | – | active: 7.94 µM
Clc1cccc(/C=N/Nc2ncnc3ccccc23)c1 | – | inconclusive: 31.6 µM [activator, single point]
O=C(CS(=O)(=O)c1ccccc1)N1CCCCCC1 | – | inconclusive: 12.6 µM [activator, partial curve]
CC(C)CCN1CCC(N)=NC1=O | inactive: 13.4% | –
N#CCCN/N=C(/Cc1nc2ccccc2[nH]1)c1ccc(Cl)cc1 | – | active: 14.1 µM
C=CCNC(=O)c1onc(CSc2cc(C)cc(C)c2)c1C(=O)O | – | inconclusive: 35.5 µM [activator, single point]
Cc1ccc(C)c(NC(=S)c2nc3ccccc3s2)c1 | – | inconclusive: 28.2 µM [activator, single point]
O=C(c1ccc(N2CCOCC2)cc1)c1cccs1 | – | active: 2.51 µM
Nc1nc(-c2c[nH]c3ccccc23)cs1 | – | inconclusive: 22.4 µM [activator, partial curve, poor fit]
Nc1nonc1-c1noc(-c2ccccc2Br)n1 | – | inconclusive: 35.5 µM [activator, single point]
c1ccc(-c2ccc(-c3nc(-c4ccncc4)no3)cc2)cc1 | – | inconclusive: 3.16 µM [activator, full curve]

SMILES | activity change, positive = activation | Potency
CCOC(=O)Cc1csc(NC(=O)c2cccc(OC)c2)n1 | inactive: -3.34% | –
CC(C)[C@H](N=Cc1ccccc1O)C(=O)O | inactive: -3.42% [at 9.22 µM] | –
O=C(CSc1nc2ccsc2c(=O)n1NC(=O)c1ccccc1)Nc1nccs1 | – | active: 20 µM
Cc1nnc(SCc2cnc(-c3ccc(C(C)C)cc3)s2)n1C | – | inconclusive: 7.94 µM [activator, partial curve, poor fit]
COc1ccc(OCc2ccc(-c3nc4ccccc4c(=O)n3N)o2)cc1 | – | inconclusive: 22.4 µM [activator, single point]
CC1=N/C(=C\c2ccc([N+](=O)[O-])cc2)C(=O)N1c1ccc(Cl)cc1 | – | inconclusive: 4.47 µM [activator, partial curve]
Cc1ccc2c(CC(=O)Nc3sccc3C(N)=O)coc2c1 | – | inconclusive: 12.6 µM [activator, partial curve]
COc1ccc(-c2nn(-c3ccccc3)cc2N)cc1 | – | active: 14.1 µM
Cc1ccc(S(=O)(=O)NC(N)=NCCc2ccc(Cl)cc2)cc1C | – | inconclusive: 3.55 µM [activator, single point]
CCOC(=O)c1c(C)n(-c2ccc(C)cc2)c2c(C(C(C)=O)C(=O)O)c(Br)c(O)c(O)c12 (centres undefined) | – | inconclusive: 7.08 µM [activator, partial curve]
CC(C)c1nc(SCC(=O)Nc2c[nH]c(=O)[nH]c2=O)c2cnn(-c3ccccc3)c2n1 | inactive: 15.5% | –
Cc1cc(C(=O)Nc2nc3c(s2)CCCC3)cs1 | – | inconclusive: 1.41 µM [activator, partial curve]
Cc1ccc(NC(=O)c2ccc(-c3cccc(Cl)c3C)o2)cc1 | inactive: -19.3% | –
CCNC(=O)[C@H]1O[C@@H](n2cnc3c(N)nc(NCCc4ccc(CCC(=O)O)cc4)nc32)[C@H](O)[C@H]1O | inactive: -3.46% | –
Cc1cc(C)c2c(=O)cc(C(=O)Nc3ccccc3C(F)(F)F)oc2c1 | inactive: 10.1% | –
CN(/N=C/c1cc([N+](=O)[O-])ccc1O)c1ccccc1 | – | inconclusive: 22.4 µM [activator, single point]
CCOC(=O)N1CCN(C(=O)COc2ccc(Cl)cc2C)CC1 | – | inconclusive: 2.82 µM [activator, single point]
N#CC(=C=[N-])c1nc2ccccc2nc1-[n+]1ccccc1 | – | inconclusive: 11.2 µM [activator, partial curve]
COc1cccc(C(=O)NC2=NCCS2)c1OC | – | inconclusive: 31.6 µM [activator, single point]
O=C(NCCc1ccccc1)c1nc2nc(-c3cccs3)cc(C(F)(F)F)n2n1 | – | inconclusive: 11.2 µM [activator, partial curve]
N#CC1=C(N)N(c2ccccc2)C2=C(C(=O)CCC2)C1c1ccsc1 (centres undefined) | – | inconclusive: 12.6 µM [activator, partial curve]
CC1CC(C)CN(C(=O)Nc2ccc(Br)cc2)C1 (centres undefined) | inactive: 10.7% | –
CCN(Cc1ccncc1)C(=O)C(CO)c1ccccc1 (centres undefined) | – | inactive
CNC(=O)CC1C(=O)N(C)C(=S)N1NC(=O)c1ccc(Cl)cc1 (centres undefined) | – | inconclusive: 0.0032 µM [activator, full curve, poor fit]
